# Results as given in publication PMC4242493.
# The other results are listed elsewhere or left out. The list includes weakly bound sequences.
# Target: MaxL homodimer (UniProt P61244)
# Test: universal protein-binding microarray (PBM)
# Details: PBS-based mixture, 10 nM His-tagged protein dimer, 2% milk, 200 ng/uL BSA, 50 ng/uL salmon testes DNA, 0.02% TX-100; detection with Alexa 488 anti-His …; high values mean tight binding; most listed sequences are background and not binding sites; double strand, one strand shown
# UniProt P61244, sequence (P61244 whole entry): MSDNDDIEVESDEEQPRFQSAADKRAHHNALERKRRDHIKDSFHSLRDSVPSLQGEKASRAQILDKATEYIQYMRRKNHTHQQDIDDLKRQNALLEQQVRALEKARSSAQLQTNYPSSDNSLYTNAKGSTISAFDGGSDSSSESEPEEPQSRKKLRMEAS
row,Sequence,binding signal (normalized occupancy)
1,GTAAGTGA,0.0729
2,GTTCCCAA,0.0687
3,CAAGGGAA,0.0781
4,GCTAGGCA,0.072
5,ATCAGCCG,0.0692
6,CATTGGCG,0.0762
7,CCGCGGAA,0.0678
8,GACCTATA,0.0756
9,GCAAAGAC,0.0719
10,GGTGCGAA,0.0742
11,ACGAGTTC,0.0822
12,GCGAAGAC,0.0682
13,CGTGGGGC,0.0907
14,CAAGCTTC,0.0672
15,ACGGGTGA,0.0801
16,CAATAAGA,0.0771
17,CATATTTC,0.0835
18,CTAACAAC,0.0738
19,AGCTCACG,0.0767
20,ATCCATCC,0.0859
21,AACTCCTC,0.077
22,TAACCCTA,0.0802
23,GCTCAAAC,0.0655
24,CCGTCGAG,0.0678
25,CTGATAAC,0.0739

row,Sequence,binding signal (normalized occupancy)
1,CACCTGTA,0.0889
2,GACGACGC,0.073
3,ACCTCACA,0.0843
4,GAGGCGAC,0.0701
5,GATCCGAC,0.0782
6,AAATATTA,0.0872
7,CCTACAGG,0.0722
8,CTCCTAAC,0.0792
9,AGTATTTC,0.0732
10,ACTAACTA,0.0735
11,TCGCCTCA,0.0678
12,GAACGGAC,0.0657
13,AACTTTCC,0.0742
14,ACGTCGAA,0.0724
15,ATGGCCTC,0.0726
16,CTCTATAC,0.0791
17,AGTGACAC,0.0824
18,AAATTTGA,0.0723
19,AACATTAC,0.0803
20,ATCCTTTC,0.0778
21,ATTGCTAG,0.0703
22,CATGTCCG,0.0872
23,GGGAACAC,0.0757
24,CGTATACC,0.08
25,CAACAGCA,0.0758

row,Sequence,binding signal (normalized occupancy)
1,ACTACGAG,0.0744
2,GACAGTTA,0.0705
3,CAGTTTCG,0.0698
4,CAGACATC,0.0793
5,ACAAAATC,0.0707
6,ATTTCGGG,0.072
7,TAAGCGAA,0.0718
8,TACATCTA,0.0787
9,CTACCAAC,0.0699
10,CACTACTC,0.0745
11,AGACAGAA,0.0751
12,ATTCGGCA,0.0728
13,ATCCTAAC,0.08
14,CCACGCAA,0.0865
15,ACGGTTGA,0.0809
16,GCCAGATA,0.0766
17,TAAAGATA,0.0727
18,CGCATACG,0.0728
19,CCGTGGTA,0.0806
20,GTTCCCCA,0.0775
21,CTAGCACC,0.0742
22,AAGTTCTG,0.0725
23,CGAACAGA,0.0737
24,AACGTACT,0.0746
25,GTCCCCCA,0.0848

row,Sequence,binding signal (normalized occupancy)
1,CTACATGC,0.089
2,ACTGTTCC,0.0738
3,GAATGTCC,0.0733
4,CGCACCCC,0.0893
5,ACATCGCC,0.0791
6,CATTAATG,0.0812
7,GATACAGA,0.0787
8,GAAACACA,0.0834
9,CACCATAG,0.079
10,AACAGCGC,0.0715
11,AGGCGCCC,0.0693
12,CAAAGGCC,0.0706
13,TAGACCGA,0.0717
14,AATTATTC,0.0811
15,ACACCTGG,0.0881
16,TATGAAAA,0.0815
17,CCATCCAG,0.0758
18,CAGCCGGA,0.0698
19,CAAGCATA,0.0775
20,GAAATATC,0.0717
21,GAGAATTA,0.0747
22,AACATCAC,0.0837
23,CCTAGAGG,0.074
24,GCATTCGA,0.0769
25,CCAATGGA,0.0747

row,Sequence,binding signal (normalized occupancy)
1,AGTTGCCC,0.0732
2,ATGGTAAA,0.0767
3,GTCGCGGA,0.068
4,AGTCTCTA,0.0746
5,AATTAAGT,0.0713
6,ACATTTTA,0.0797
7,CCCCACCC,0.0931
8,AGGCAGCC,0.0705
9,ACAAGCCT,0.0729
10,CATCGAGC,0.0825
11,AAGAGAAG,0.0777
12,ACCAACGG,0.0739
13,TAACGCTA,0.0804
14,ACCAATTC,0.0738
15,ACCCAGTC,0.0736
16,TCAAGCGA,0.0732
17,CGTGGTCA,0.102
18,TGTTGTAA,0.0748
19,TATATATA,0.0875
20,CGAAGCTA,0.0669
21,ACCGGCTA,0.0707
22,CCATTAAC,0.0853
23,GTATTTGA,0.0761
24,AGTGAAAC,0.0748
25,ATGCGATC,0.0837

row,Sequence,binding signal (normalized occupancy)
1,AGTTCTTG,0.0754
2,CTCCTATA,0.0818
3,ATCTAGGG,0.0776
4,TACCTGGA,0.0737
5,AGAGAACT,0.0671
6,CTAACCCC,0.0809
7,GCGAGACA,0.0763
8,ATGGGAGG,0.077
9,ACAAGAGA,0.0717
10,AAGCATCT,0.0778
11,ATCTTTGA,0.0714
12,CATGACTA,0.091
13,AAGCCAAC,0.0708
14,GCTTTGTA,0.0706
15,CAAGAGAG,0.0689
16,CGTTACTA,0.0794
17,GGCATGGA,0.0929
18,GTAGGGGA,0.0763
19,AACTGACA,0.0741
20,CTCATTGC,0.0792
21,AGGTTAAA,0.0747
22,AGTCGGTG,0.0703
23,AGGAACTG,0.0672
24,CGTGTTCA,0.1
25,CTTACATA,0.077

row,Sequence,binding signal (normalized occupancy)
1,AGCACCAA,0.0705
2,GGCAGCTA,0.0679
3,ACCCTGAC,0.0719
4,CCCTCTGC,0.073
5,CCACGGAC,0.0742
6,ATGGTAGG,0.0818
7,GACATTGC,0.0757
8,AGGCCGGC,0.0665
9,CTACATAC,0.0842
10,ATTACCTA,0.0784
11,GCAAAATA,0.0747
12,TACACACA,0.0876
13,CGGTTAAC,0.0762
14,AGGAATGC,0.0737
15,ACTATGCG,0.0817
16,CCCACACG,0.0879
17,AACTATCT,0.0758
18,CATCTACG,0.08
19,GTCGCATA,0.0781
20,CCTAAATC,0.0717
21,CACAATGA,0.0798
22,AGCATTTG,0.0806
